ChEMBL document CHEMBL4888484, “Replenishing the malaria drug discovery pipeline: Screening and hit evaluation of the MMV Hit Generation Library 1 (HGL1) against asexual blood stage Plasmodium falciparum ,using a nano luciferase reporter read-out” (2022)
Among all 150,000 compounds or so, about 540 (0.36%) showed an effect of 50% or more. Some of the results follow.

What follows are compounds tested on Plasmodium falciparum (assay: Primary screen in NF54 nanoGlo assay, in single point, at 2uM, 72h; a lower Z score goes with more inhibition). Settings: timepoint 72 hour.
Type: functional, Erythrocyte

SMILES	% Inhibition [%]	Z score
CC(C)n1nnnc1CN[C@@H](C)c1ccc(F)c(F)c1	-15	1.89
CCC(=O)N1CCN(C(=O)c2cnc(Nc3ccccc3)nc2C(F)(F)F)C1	-8	1.2
O=C1NC(=O)C2(CCN(C(=O)Nc3cccc4c3CCCC4)CC2)N1	2	-0.37
O=C1[C@@H]2C(c3ccccc3Cl)=NO[C@@H]2C(=O)N1c1ccc2c(c1)OCO2	-11	1.43
CC(C)(C)c1nc(CN2CCN(C(=O)CCn3ccnn3)CC2)cs1	-10	1.36
C=C1CC(C)(C(=O)NCc2nccs2)C1	-8	0.66
Cc1oc(C(=O)N2CC[C@H](C(=O)O)C2)cc1COc1ccccc1	-14	1.24
O=C(NC[C@H]1CCO[C@@H]1c1cn[nH]c1)c1nccc2occc12	1	-0.15
COCCN(CC(=O)N(C)C)[C@@H](C)C(=O)Nc1cccc(Cl)c1	-9	1.09
COCc1nc(CCNC(=O)c2noc(C)c2Cc2c(C)noc2C)no1	-6	0.75
CC(C)[C@H](CNC(=O)Nc1ccn(C)n1)ONC(=O)OC(C)(C)C	-21	2.3
Cc1ccc(-n2nc(C(=O)N3CCN(c4cccc(C(F)(F)F)c4)CC3)c(=O)n(C)c2=O)cc1	-20	1.79
CN(C)c1nc(N)cc(-c2cnn(CC(=O)Nc3nn(C)c4ccccc34)c2)n1	2	-0.23
O=C(NCCCC1CCCCC1O)c1cc(F)c(O)c(F)c1 (stereo unspecified)	-13	1.1
Cc1ocnc1C(=O)NC1(c2ccc(F)cc2F)CCCCC1	-6	1.34
O=C(O)c1ccccc1CN1CCC[C@@](CO)(CC2CC2)C1	12	-1.41
CC(C)[C@H](C)NC(=O)Nc1cccc(Br)c1	4	-0.47
Cc1cccnc1-c1cccc(-c2ccn(CCn3cccn3)n2)c1	-9	1.12
CC(C)CN(CC(C)C)C(=O)c1cccc(C(=O)N(CC(C)C)CC(C)C)n1	-2	0.3
C[C@@]1(C(=O)Nc2cccc3cccnc23)Oc2ccccc2NC1=O	29	-3.91
CCCCS(=O)(=O)N[C@@H](C)C(=O)N1CCC(OC)CC1	0	-0.05
COc1cccc(OC2CN(Cc3nc(C)cs3)C2)c1	4	-0.51
COCC1(C2CC2)CN(c2nc(C)nc3c2cnn3-c2ccccc2)C1	-3	0.58
